Results as given in PubChem BioAssay AID493208 (National Center for Advancing Translational Sciences (NCATS), 2011).
In all, about 44,000 compounds went through this assay and about 340 (0.77%) were called active. About 5% were inconclusive and are not listed. The call rests on the fitted dose curve; in most records, active means well fitted inhibition curve with a large enough effect; inconclusive means small, poorly fitted or top-dose-only effect; inactive means flat fitted curve, though single readings scatter. This is one part of the list.

Test: Acumen qHTS Assay for Inhibitors of the mTORC1 Signaling Pathway in MEF (Tsc2-/-, p53-/-) Cells: Sytravon; further: nearly all actives have a fitted effect of over 50% in size;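 on activity change, negative = inhibition: plate controls were DMSO for no effect and rapamycin for full effect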
Conditions: phospho-rpS6 immunofluorescence/PI, 24 h; series mostly up to 38.3 µM; activity change, negative = inhibition: at the top concentration
Procedure, shortened: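 Read-out: phospho-S6 Alexa-488 intensity over PI intensity per well, scored as % active cells using thresholds from rapamycin (7.5 nM) and DMSO controls. Tsc2-/-, p53-/- MEFs exposed to compound for 24 h; PI cell count recorded as viability.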
Potency means the concentration at half of the fitted maximal effect.

Row | Structure (SMILES) | activity change, negative = inhibition | Potency
1 | Cc1cccc(Cn2c(=O)n(CC3CCC(C(=O)N4CCC(C)CC4)CC3)c(=O)c3sccc32)c1 (stereo unspecified) | inactive: -2.97% | –
2 | O=C(CSc1cn(CC(=O)N2CCCC2)c2ccccc12)Nc1ccccc1C(F)(F)F | inactive: -3.61% | –
3 | Cc1nc2cc(-c3ccccc3)nn2c(C)c1CCC(=O)NCc1cccc(Cl)c1 | inactive: -11.5% | –
4 | Cc1ccc(CNC(=O)CN(c2cc(C)cc(C)c2)S(=O)(=O)c2c(C)noc2C)cc1 | inactive: -17.2% | –
5 | Cc1nc2ccn(Cc3cccs3)c(=O)c2cc1C(=O)N1CCN(c2ccccc2)CC1 | inactive: -14.5% | –
6 | COC(=O)c1ccccc1NC(=O)c1ccc2c(Cl)c3c(nc2c1)CCCC3 | inactive: -0.411% | –
7 | CCOC(=O)Cc1ccc(NC(=O)N2CC(C)Oc3ccc(Cl)cc32)cc1 (stereo unspecified) | inactive: -0.0602% | –
8 | COc1ccc2c(c1)cc1c(=O)n(CC(=O)NCCc3ccccc3)nc(C)n12 | inactive: -0.647% | –
9 | COc1cc2nc(NCc3ccccc3)n3nc(-c4ccccc4)nc3c2cc1OC | inactive: -0.0113% | –
10 | O=C(Nc1cccc(Br)c1)c1cc(-c2ccc3c(c2)OCCO3)on1 | inactive: -3.26% | –
11 | Cc1ccccc1CNCCSc1nnnn1-c1ccccc1 | inactive: 2.63% | –
12 | CCOC(=O)N1CCN(Cc2nc3cc(NC(=O)c4ccccc4OC)ccc3n2C(C)C)CC1 | inactive: -16.7% | –
13 | Cc1ccc2c(c1)N(S(=O)(=O)c1ccc3c(c1)NC(=O)CC(=O)N3)CCO2 | inactive: 0.26% | –
14 | Cc1ccc2c(c1)N(CC(=O)NCCCN1CCCCC1C)C(=O)c1cccnc1O2 (stereo unspecified) | inactive: 0% | –
15 | COc1ccc(-n2c(=O)c3ccc(C(=O)NCc4ccc(C)cc4)cc3n(Cc3ccc(C)cc3)c2=O)cc1 | inactive: 1.31% | –
16 | COc1ccc(CNC(=O)CCc2c(C)c3cc4c(C)coc4cc3oc2=O)cc1 | inactive: 0.167% | –
17 | COc1ccc(CNC(=O)c2nc(S(=O)(=O)Cc3ccccc3)ncc2Cl)cc1 | – | active: 20.7 µM
18 | Cc1ccc(-n2nc3c(=O)n(CC(=O)NCc4ccco4)nc(C)c3c2C)cc1 | inactive: -2.57% | –
19 | Cc1nc2nc(SCC(=O)N(Cc3ccccc3)C(C)C)nn2c(C)c1Cc1ccccc1Cl | inactive: 5.98% | –
20 | CSc1ccc(CCNc2ncnc3onc(-c4ccc(Cl)cc4)c23)cc1 | inactive: -7.47% | –
21 | Cc1cc(C)c2sc(N3CCN(C(=O)C4CC4)CC3)nc2c1 | inactive: -5.12% | –
22 | CCc1ccc2ncc3c(-c4ccc(C)cc4)nn(CC(=O)Nc4ccc(C)cc4)c3c2c1 | inactive: 0% | –
23 | Cc1cc(C)c(NC(=O)Cn2c(=O)n(-c3ccc(F)cc3)c(=O)c3c(C)c(C(=O)N(C)C)sc32)c(C)c1 | inactive: 3.56% | –
24 | COc1ccc(C(=O)c2sc(Nc3cc(Cl)ccc3C)nc2N)cc1OC | inactive: -7.53% | –

Row | Structure (SMILES) | activity change, negative = inhibition | Potency
25 | COC(=O)c1cc2occc2n1Cc1nc(-c2cccc(Br)c2)oc1C | inactive: 0.0695% | –
26 | CCOC(=O)c1ccc(NC(=O)CC2C(=O)N(c3ccc(F)cc3)C(=O)N2Cc2ccc(C)cc2)cc1 (stereo unspecified) | inactive: 2.79% | –
27 | COc1ccc(C(=O)Nc2ccccc2-c2nc3ccccc3s2)c(OC)c1 | inactive: -14.7% | –
28 | CCOc1cc(C2Sc3ccccc3NC3=C2C(=O)c2ccccc23)ccc1O (stereo unspecified) | inactive: -1.08% | –
29 | CCOC(=O)c1cnc2ccc(Cl)cc2c1Nc1ccc(OCC)cc1 | inactive: -19.4% | –
30 | CC(C)OCCCNC(=O)CSc1c2c(nc3ccc(Cl)cc13)CCCC2 | inactive: -10.2% | –
31 | COc1cccc(-c2nc3c(c(SCC(=O)Nc4cc(C)ccc4C)n2)Cc2c(CO)cnc(C)c2O3)c1 | inactive: -6.33% | –
32 | CC(=O)c1ccc(NC(=O)CCc2nc(-c3ccc(C)cc3)no2)cc1 | inactive: 2.89% | –
33 | CC(=O)c1ccc(NC(=O)CSc2nc(C3CCCC3)nc3c2c(=O)n(C)c(=O)n3C)cc1 | inactive: 3.79% | –
34 | Cc1nc(-n2nc(C)c(CCC(C)C)c2C)sc1C(=O)Nc1ccc(Br)cc1 | inactive: 1.58% | –
35 | COc1ccc(CCNC(=O)CCCn2c(SCC(N)=O)nc3cc4c(cc3c2=O)OCO4)cc1OC | inactive: -0.307% | –
36 | COc1ccc(CNC(=O)C2=C(C)C(=O)OC23CCN(C(C)=O)CC3)cc1 | inactive: 0.721% | –
37 | CSc1ccc(CNC(=O)CCc2c(C)nn(-c3ccc(N4CCCC4)nn3)c2C)cc1 | inactive: 3.11% | –
38 | CC1CCN(c2oc(-c3ccc(COc4ccc(Cl)cc4)o3)nc2C#N)CC1 | inactive: -5.91% | –
39 | CCCCOc1ccccc1C(=O)Nc1onc2c1CCCC2 | inactive: -5.84% | –
40 | CCOc1ccccc1CNC(=O)c1ccc(Cn2c(SCc3ccccc3)nc3cccnc32)cc1 | inactive: -12.9% | –
41 | Cc1cc(C)c2nc(NC(=O)c3ccc(S(=O)(=O)N4CCC(C)CC4)cc3)sc2c1 | inactive: 3.18% | –
42 | Fc1ccc(N2CCN(Cc3cccn3-c3nnc(N4CCN(C5CCCCC5)CC4)s3)CC2)cc1 | inactive: 0% | –
43 | Cc1ccc(NC(=O)C2CCCN(c3cnccn3)C2)c(C)c1 (stereo unspecified) | inactive: 0.826% | –
44 | CCc1ccccc1NC(=O)c1cc2c(Cl)nc3ccccc3c2s1 | inactive: -0.776% | –
45 | Cc1cccc(C)c1NC(=O)CCS(=O)(=O)c1cccc2nonc12 | inactive: 12.8% | –
46 | Cc1c(NC(=O)c2ccc(Br)o2)cccc1-c1nc2ccccc2o1 | inactive: 9.43% | –
47 | CCOC(=O)c1ccc(NC2=CC(c3ccc(F)cc3)N(c3ccc(C(=O)OCC)cc3)C2=O)cc1 (stereo unspecified) | inactive: 1.91% | –
48 | CCOc1ccccc1NC(=O)c1cc2c(=O)n(Cc3cccnc3)ccc2nc1C | inactive: -0.233% | –

Row | Structure (SMILES) | activity change, negative = inhibition | Potency
49 | CCCOc1cccc(C(=O)Nc2ccc(-c3cc4ccccc4oc3=O)c(C)c2)c1 | inactive: 8.73% | –
50 | CCCSc1nc2sc3c(c2c(=O)n1-c1cccc(Br)c1)CC(C)(C)OC3 | inactive: -9.63% | –
51 | Cc1ccccc1Cn1c(SCc2ccc(C(=O)NC3CCCC3)cc2)nc2ccncc21 | inactive: -0.246% | –
52 | CCOC(=O)c1c(C)[nH]c(C)c1S(=O)(=O)N1CCC(C(=O)Nc2ccc(C)c(Cl)c2)CC1 | inactive: -4.98% | –
53 | CC(=O)Nc1ccc(Nc2ncnc3c2c(-c2ccccc2)cn3-c2ccc(C)c(Cl)c2)cc1 | inactive: 3.93% | –
54 | COc1ccccc1N=c1scc(-c2ccc(S(=O)(=O)N3CCCC3)cc2)n1C | inactive: -20% | –
55 | Cc1nc2c(c(C)nn2-c2ccccc2)c(C)c1CCC(=O)NCCc1ccc(Cl)cc1 | inactive: 3.24% | –
56 | COc1cccc(NC(=O)N2CCN(C(=O)c3nsc4ccccc34)CC2)c1 | inactive: -4.52% | –
57 | COc1ccccc1CNC(=O)CCNS(=O)(=O)c1cccc2nsnc12 | inactive: -24.1% | –
58 | COc1ccc(NC(=O)N2CCN3CCCCC3C2)cc1OC (stereo unspecified) | inactive: 0.368% | –
59 | Cc1ccc(Cn2ccn(Cc3cccc(C(F)(F)F)c3)c(=O)c2=O)cc1 | inactive: -1.19% | –
60 | COc1cccc(NC(=O)CSc2nc3c([nH]c4ccccc43)c(=O)n2-c2cccc(Cl)c2)c1 | inactive: -15.6% | –
61 | Cc1ccc(-c2ccc(=O)n(CC(=O)Nc3ccc(C(C)C)cc3)n2)cc1 | inactive: -9.15% | –
62 | CCOC(=O)c1ccc(NC(=O)CSc2nc(C)c(Cc3ccccc3)c(=O)[nH]2)cc1 | inactive: 0.524% | –
63 | C=CCOc1ccc(C2c3c(oc4ccc(C)cc4c3=O)C(=O)N2CCCN2CCOCC2)cc1 (stereo unspecified) | inactive: 4.28% | –
64 | COCCNC(=O)CCn1c(=O)c2cc(OC)c(OC)cc2n(CC(=O)Nc2ccccc2OC)c1=O | inactive: -6.06% | –
65 | COc1ccccc1NC(=O)c1c(C)cc(C)nc1SCC(=O)Nc1cccc(C)c1 | inactive: 0% | –
66 | CCc1cccc(CC)c1N(COC)C(=O)Cn1c(C)nc2ccccc21 | inactive: -0.507% | –
67 | CCN(CC)CCOC(=O)c1ccc(NC(=O)CSc2cc(=O)n(CC)c3ccccc23)cc1 | inactive: -1.38% | –
68 | Cc1ccc(-n2nc(C)c3c(C)cc(=O)n(CC(=O)NC(C)C)c32)cc1 | inactive: -4.49% | –
69 | O=C(Nc1ccc(F)c(Cl)c1)C1Cc2ccccc2CN1S(=O)(=O)c1ccc(F)cc1 (stereo unspecified) | inactive: -20.1% | –
70 | CCc1nn(CC(=O)Nc2ccc(C)cc2C)c(=O)c2cc3sccc3n12 | inactive: 0.558% | –
71 | Cc1ccc(NC(=O)c2cn(-c3ccccc3)nc2-c2ccccc2)cc1 | inactive: -9.48% | –
72 | CCCCn1c(SCC(=O)Nc2cccc(OC)c2)nc2ccsc2c1=O | inactive: -3.88% | –

Row | Structure (SMILES) | activity change, negative = inhibition | Potency
73 | COc1cc(OC)c(NC(=O)c2cnn(-c3cccc(Cl)c3C)c2C2CCN(C(=O)OC(C)(C)C)CC2)cc1Cl | inactive: 2.13% | –
74 | COc1ccc(-n2cc(-c3ccccc3)c3c(NCc4cccc(Cl)c4)ncnc32)cc1 | inactive: -1.98% | –
75 | O=C(NCc1ccccc1)c1ccc(NC(=O)N2CCSc3ncccc32)cc1 | inactive: -8.63% | –
76 | Cc1ccc(C2=NN(CC(=O)NC(C)c3ccccc3)C(=O)CC2)cc1 (stereo unspecified) | inactive: -1.36% | –
77 | COc1ccc(-c2cn3nc(N4CCC(C(=O)NCc5ccc(F)cc5)CC4)sc3n2)cc1 | inactive: -4.96% | –
78 | CCOC(=O)c1c(NC(=O)COc2cccc(C)c2C)sc2c1CCCCC2 | inactive: 2.13% | –
79 | CC(C)c1ccc(Nc2c(-c3ccc(N4CCOCC4)cc3)nc3ncccn23)cc1 | inactive: 12.1% | –
80 | COc1ccc(NC(=O)C2CCC(CNS(=O)(=O)c3csc(C(N)=O)c3)CC2)cc1 (stereo unspecified) | inactive: -10.3% | –
81 | COc1ccc(-c2onc(C)c2C)cc1S(=O)(=O)Nc1ccc(OC(F)(F)F)cc1 | inactive: 0.328% | –
82 | CCOC(=O)c1cccc(NC(=O)c2cc(S(=O)(=O)N3CCCC3)cn2C)c1 | inactive: 10.2% | –
83 | CCOC(=O)CNC(=O)c1cc2c(=O)n(CC)c3ccccc3c2s1 | inactive: 0.987% | –
84 | CCCOC(=O)c1ccc(NC(=O)Cn2nnc3sc4c(c3c2=O)CCC(C(C)(C)C)C4)cc1 (stereo unspecified) | inactive: -3.45% | –
85 | Cc1ccc(CNC(=O)CSc2ccc(-c3sc(-c4ccccc4)nc3C)nn2)cc1 | inactive: 0.904% | –
86 | COC(=O)c1cc2sc(C)cc2n1Cc1ccccc1 | inactive: -8.57% | –
87 | O=S(=O)(c1ccc(Br)cc1)c1nc(-c2ccco2)oc1SCc1ccccc1F | inactive: -0.0492% | –
88 | CC(=O)c1cc(-c2ccc(F)cc2)n(CC(=O)NC2CCCCCC2)c1C | inactive: 0.795% | –
89 | CCCOc1ccc(/C=C/C(=O)Nc2sc3c(c2C(=O)OCC)CCC(C)C3)cc1OC (stereo unspecified) | inactive: 4.33% | –
90 | COc1cccc(CNS(=O)(=O)c2c(C)nc3scc(C)n3c2=O)c1 | inactive: 2.38% | –
91 | COc1ccc(NC(=O)c2ccco2)cc1NC(=O)C(C)Oc1ccc(Cl)cc1Cl (stereo unspecified) | inactive: -18.1% | –
92 | CCOc1ccc(CCNC(=O)CN2C(=O)c3cccnc3Oc3ccc(C)cc32)cc1OCC | inactive: -0.002% | –
93 | O=C(Nc1cccc(C(F)(F)F)c1)c1cc2nc(-c3ccccc3)cc(C(F)(F)F)n2n1 | inactive: -5.05% | –
94 | CCOc1ccccc1CNC(=O)CCCn1c(=O)c2cccn2c2cccnc21 | inactive: -5.53% | –
95 | Clc1ccc(N2CCN(Cc3nnc(-c4ccc5c(c4)OCO5)o3)CC2)cc1 | inactive: 2.35% | –
96 | COc1ccc(-c2cccc(NS(=O)(=O)c3cccs3)c2)nn1 | inactive: -4.01% | –
